# Measured values from the supplement of paper PMC8728848.
# The list shows a part of the results.
# B1: PX15618B-bfa-464-25-464 (Bacteroides fragilis) (protein)
# chain: DQEPPLYVNENDIFTSPTRIEATLNGLYAAIKNTGTKSLMGGKSYLVFDNRGDDVINISNNLVTLFNTYNMNVGITDAENADTWTYAYLAINKVNTFLQSLEGAREVAGENYDRYVQEAKFVRALAYYYLNNLYPTPYSVNPDAKSVPLRLTAEAGTENNNMPRSTVKQIYEHILSDLENISALDTEVNTYTGVTHATQAAANMLKMRVYMAMNEWDKAITAGELVTGYSLPEDVTLIYKAPYFSQESIFSLPMADTNIPNTQQSLAEYYYDGKIMLIDTKSGIMSKPDYSLATDKRIIAFKGEKDLLMKFTDAKTKLQWVPIFRYAETLLDLAECYANKAGGEATAKSLLKQVRGRSVDAATDPLNIDNLSGDALKEAIYNEKRLEFIGEGIRGIDIMRRGEHFIKVGENETINVGPSDEKYTWPIPQVELLLNKDINK
# Tests used:
# Experiment in all cases: glycan array binding signal (z-score within array); higher = stronger binding
# Details in all cases: glycan notation: IUPAC condensed, linker removed
# [1] = biological target: GlcNAc(b1-3)Man
# Method in brief: (§1)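 Glycan array binding is given as a within-array Z-score, which can be read as non-binding when negative. The arrays, 3228 of them, came from the Consortium for Functional Glycomics database and were retained only where the protein sequence was available. Z-scores were averaged across arrays of the same protein sequence at different concentrations or buffers and across linkers.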
# [2] = biological target: GlcNAc(b1-3)[GlcNAc(b1-4)][GlcNAc(b1-6)]GlcNAc
# Method in brief: as §1
# [3] = biological target: GlcNAc(b1-3)[GlcNAc(b1-6)]Gal(b1-4)GlcNAc
# Method in brief: as §1
# [4] = biological target: GlcNAc(b1-3)[GlcNAc(b1-6)]GalNAc
# Method in brief: as §1
# [5] = biological target: GlcNAc(b1-4)Gal(b1-4)GlcNAc
# Method in brief: as §1
# [6] = biological target: GlcNAc(b1-4)GlcNAc
# Method in brief: as §1
# [7] = biological target: GlcNAc(b1-4)GlcNAc(b1-4)GlcNAc
# Method in brief: as §1
# [8] = biological target: GlcNAc(b1-4)GlcNAc(b1-4)GlcNAc(b1-4)GlcNAc(b1-4)GlcNAc
# Method in brief: as §1
# [9] = biological target: GlcNAc(b1-4)GlcNAc(b1-4)GlcNAc(b1-4)GlcNAc(b1-4)GlcNAc(b1-4)GlcNAc
# Method in brief: as §1
# [10] = biological target: GlcNAc(b1-4)[GlcNAc(b1-6)]GalNAc
# Method in brief: as §1
# [11] = biological target: GlcNAc(b1-6)Gal(b1-4)GlcNAc
# Method in brief: as §1
# [12] = biological target: GlcNAc(b1-6)GalNAc
# Method in brief: as §1
# [13] = biological target: GlcNAc6S(b1-3)Gal(b1-4)GlcNAc
# Method in brief: as §1
# [14] = biological target: Kdn(a2-3)Gal(b1-3)GalNAc
# Method in brief: as §1
# [15] = biological target: Kdn(a2-3)Gal(b1-3)GlcNAc
# Method in brief: as §1
# [16] = biological target: Kdn(a2-3)Gal(b1-4)Glc
# Method in brief: as §1
# [17] = biological target: Kdn(a2-3)Gal(b1-4)GlcNAc
# Method in brief: as §1
# [18] = biological target: Kdn(a2-3)Gal(b1-4)[Fuc(a1-3)]GlcNAc
# Method in brief: as §1
# [19] = biological target: Kdn(a2-6)Gal(b1-4)GlcNAc
# Method in brief: as §1
# [20] = biological target: Man(a1-2)Man(a1-2)Man(a1-3)Man
# Method in brief: as §1
# [21] = biological target: Man(a1-2)Man(a1-2)Man(a1-6)[Man(a1-3)]Man
# Method in brief: as §1
# [22] = biological target: Man(a1-2)Man(a1-3)Man
# Method in brief: as §1
# [23] = biological target: Man(a1-2)Man(a1-3)[Man(a1-2)Man(a1-6)]Man
# Method in brief: as §1
# [24] = biological target: Man(a1-2)Man(a1-3)[Man(a1-2)Man(a1-6)]Man(a1-6)[Man(a1-2)Man(a1-2)Man(a1-3)]Man
# Method in brief: as §1
# [25] = biological target: Man(a1-2)Man(a1-3)[Man(a1-2)Man(a1-6)]Man(a1-6)[Man(a1-2)Man(a1-2)Man(a1-3)]Man(b1-4)GlcNAc(b1-4)GlcNAc
# Method in brief: as §1
# [26] = biological target: Man(a1-2)Man(a1-3)[Man(a1-6)]Man(a1-6)[Man(a1-2)Man(a1-3)]Man(b1-4)GlcNAc(b1-4)GlcNAc
# Method in brief: as §1
# [27] = biological target: Man(a1-2)Man(a1-6)[Man(a1-3)]Man(a1-6)[Man(a1-2)Man(a1-2)Man(a1-3)]Man
# Method in brief: as §1
# [28] = biological target: Man(a1-2)Man(a1-6)[Man(a1-3)]Man(a1-6)[Man(a1-2)Man(a1-2)Man(a1-3)]Man(b1-4)GlcNAc(b1-4)GlcNAc
# Method in brief: as §1
# [29] = biological target: Man(a1-3)[Man(a1-6)]Man
# Method in brief: as §1
# [30] = biological target: Man(a1-3)[Man(a1-6)]Man(a1-6)[Man(a1-2)Man(a1-3)]Man(b1-4)GlcNAc(b1-4)GlcNAc
# Method in brief: as §1
# [31] = biological target: Man(a1-3)[Man(a1-6)]Man(a1-6)[Man(a1-3)]Man
# Method in brief: as §1
# [32] = biological target: Man(a1-3)[Man(a1-6)]Man(a1-6)[Man(a1-3)]Man(b1-4)GlcNAc(b1-4)GlcNAc
# Method in brief: as §1
# [33] = biological target: Man(a1-3)[Man(a1-6)]Man(b1-4)GlcNAc(b1-4)GlcNAc
# Method in brief: as §1
# [34] = biological target: Man(a1-3)[Man(a1-6)]Man(b1-4)GlcNAc(b1-4)[Fuc(a1-6)]GlcNAc
# Method in brief: as §1
# [35] = biological target: Man(a1-6)Man
# Method in brief: as §1
# [36] = biological target: Man(b1-4)GlcNAc
# Method in brief: as §1
# [37] = biological target: MurNAc(b1-4)GlcNAc
# Method in brief: as §1
# [38] = biological target: Neu5Ac(a2-3)Gal
# Method in brief: as §1
binder,measurement,setting,value
B1,glycan array binding signal (z-score),[1],-0.321
same,glycan array binding signal (z-score),[2],-0.765
same,glycan array binding signal (z-score),[3],-0.26
same,glycan array binding signal (z-score),[4],-0.088
same,glycan array binding signal (z-score),[5],1.25
same,glycan array binding signal (z-score),[6],-0.122
same,glycan array binding signal (z-score),[7],-0.026
same,glycan array binding signal (z-score),[8],-0.106
same,glycan array binding signal (z-score),[9],-0.076
same,glycan array binding signal (z-score),[10],0.829
same,glycan array binding signal (z-score),[11],-0.393
same,glycan array binding signal (z-score),[12],0.228
same,glycan array binding signal (z-score),[13],0.529
same,glycan array binding signal (z-score),[14],-0.399
same,glycan array binding signal (z-score),[15],-0.354
same,glycan array binding signal (z-score),[16],-0.123
same,glycan array binding signal (z-score),[17],-0.28
same,glycan array binding signal (z-score),[18],0.413
same,glycan array binding signal (z-score),[19],0.29
same,glycan array binding signal (z-score),[20],-0.568
same,glycan array binding signal (z-score),[21],0.334
same,glycan array binding signal (z-score),[22],-0.045
same,glycan array binding signal (z-score),[23],-0.279
same,glycan array binding signal (z-score),[24],0.265
same,glycan array binding signal (z-score),[25],-0.218
same,glycan array binding signal (z-score),[26],-0.391
same,glycan array binding signal (z-score),[27],-0.122
same,glycan array binding signal (z-score),[28],-0.199
same,glycan array binding signal (z-score),[29],-0.007
same,glycan array binding signal (z-score),[30],-0.269
same,glycan array binding signal (z-score),[31],-0.143
same,glycan array binding signal (z-score),[32],0.119
same,glycan array binding signal (z-score),[33],-0.306
same,glycan array binding signal (z-score),[34],0.037
same,glycan array binding signal (z-score),[35],0.302
same,glycan array binding signal (z-score),[36],0.054
same,glycan array binding signal (z-score),[37],-0.254
same,glycan array binding signal (z-score),[38],-0.377
